# Laboratory results taken from PubChem BioAssay AID1345082 (National Center for Advancing Translational Sciences (NCATS), 2018).
# Screen size: about 94,000 compounds; about 4,000 (4.3%) were called active. Inconclusive results, whose numbers are uncertain, are shown with a selection of clear calls. The call rests on the fitted dose curve; in most records, active means well fitted inhibition curve with a large enough effect; inconclusive means small, poorly fitted or top-dose-only effect; inactive means no such curve, though single readings can be large or run the other way. Potencies of inconclusive entries are doubtful fits and often do not repeat.
# Assay: Cytotoxic Profiling in NIH 3T3 Cell Line of Diverse Libraries Using Quantitative High-Throughput Screening; further: nearly all actives have a fitted effect of over 55% in size
# Conditions: NIH 3T3 viability, CellTiter-Glo ATP luminescence, 48-72 h; activity change, negative = cytotoxicity: at 96.7 µM (top of the series); series mostly up to 96.7 µM
# Excerpt: Cell-based phenotypic screening is a commonly used approach to discover biological pathways, novel drug targets, chemical probes and high-quality hit-to-lead molecules. Many hits identified from high-throughput screening campaign are ruled out through a series of follow-up potency, selectivity/specificity, and cytotoxicity assays. Prioritization of molecules with little or no cytotoxicity for a more in-depth downstream evaluation influence the future direction of projects, so cytotoxicity profiling of the screening libraries at early stage is essential for increasing the likelihood of candidate success. In this study, we analyzed results from a cell-based cytotoxicity screening campaign, comprising nearly 10,000 compounds in NCATS annotated libraries, and over 100,000 compounds in a diversity library, evaluated in four normal cell lines (HEK 293, NIH 3T3, CRL-7250 and HaCat) and a cancer cell line (KB 3-1, a HeLa subline) with overall screening outcomes, hit rates, pan-activity and selectivity. For the annotated library, we also examined the primary targets and mechanistic pathways regularly associated with cell death. To our knowledge, this is the first study to use high-throughput screening to profile large libraries for cytotoxicity assessment in both normal and cancer cell lines. In summary, the results generated here constitutes a valuable resource for the scientific community and provides insight on identifying cytotoxic compounds with particular mechanisms of action, and prioritizing compounds with suitable cytotoxicity profile for further evaluation.
# NIH 3T3 cells were seeded into white 1536-well plates using a Multidrop Combi peristaltic dispenser (ThermoFisher, Waltham, MA) at a density of 400 cells/well in 5 uL of medium respectively. A pintool (Kalypsys) was used to transfer 23 nL of compound solution to the 1536-well assay plates. After 48 or 72 hr incubation at 37 degree Celsius, 5% CO2 and 95% humidity, 2.5 uL of CellTiter-Glo (Promega) was dispensed into each well using a dispenser (Aspect Automation, St. Paul, MN) with solenoid valves (Lee Valves, Westbrook CT). Plates were left at room temperature for 10 min before imaging the ATP-coupled luminescence using a ViewLux microplate imager (PerkinElmer, Waltham, MA).
# On the % scale 0 is the no-effect control and ±100 the full control effect; potency means the concentration at half of the fitted maximal effect; tags describe the fitted curve by direction and shape.
Compound,"activity change, negative = cytotoxicity",Potency,outcome
O=C(c1cccc(-c2ccccn2)c1)N1CCN(C(=O)C2CC2)CC1,inactive: -11.9% [at 138 µM],–,–
COCCNC(=O)c1cc(Br)cn2ccnc12,–,inactive,–
O=C(Nc1ccc2c(c1)CN(C(=O)c1cc(C3CC3)[nH]n1)CCO2)C1CC1,–,"inconclusive: 50.1 µM [inhibitor, partial curve, poor fit]",–
COC[C@@H]1CN(C(=O)c2cccc3[nH]ccc23)C[C@H]1c1nc(C)no1,–,–,inactive
Cc1ccccc1-c1cnc2n[nH]c(-c3ccccc3)c2n1,–,active: 50.1 µM,–
CC(C)n1cc(CN2CCC3(CC2)CC(C(=O)N2CCOCC2)N(C)C3)c2ccccc21 (stereo not drawn),–,"inconclusive: 50.1 µM [inhibitor, partial curve, poor fit]",–
O=C(NCCc1ccc(Cl)cc1)c1ccc2nnc(-c3cc(C(F)(F)F)cc(C(F)(F)F)c3)n2c1,–,active: 25.1 µM,–
O=C(NCc1ccco1)[C@@H]1Cc2nc[nH]c2CN1Cc1ccc(C(F)(F)F)cc1,–,"inconclusive: 100 µM [inhibitor, partial curve, poor fit]",–
COc1ccc(CC(=O)NC2CCCN(c3ccc4nnc(-c5ccccc5)n4n3)C2)cc1 (stereo not drawn),–,"inconclusive: 56.2 µM [inhibitor, partial curve, poor fit]",–
CCN(CCNC(=O)C1CCN(c2cn[nH]c(=O)c2)C1)Cc1ccccc1 (stereo not drawn),inactive: -4.09%,–,–
COC1CN(C2CCN(C(=O)CCc3c[nH]c4ccccc34)CC2)C12CCOCC2 (stereo not drawn),inactive: 0.794%,–,–
CC(=O)NCCNC(=O)c1ccc(-c2ncc3cnc(-c4cccc(F)c4)cn23)cc1,–,"inconclusive: 63.1 µM [inhibitor, partial curve, poor fit]",–
CN1CCOc2c(C(=O)NCc3cccnc3)cc(-c3ccccc3O)cc21,–,"inconclusive: 89.1 µM [inhibitor, partial curve]",–
CNC(=O)c1cc(C2CC2)nc2onc(C3CCCN(C(=O)C4CCCC4)C3)c12 (stereo not drawn),–,"inconclusive: 35.5 µM [inhibitor, partial curve]",–
Cc1ccc(NC(=O)N2CCCC(Cn3c(C)nc4cccnc43)C2)cc1F (stereo not drawn),–,"inconclusive: 50.1 µM [inhibitor, partial curve, poor fit]",–
CCN1c2cc(C(=O)N3CCN(c4ccc(C)cc4)CC3)ccc2C(=O)N2CCCCC21 (stereo not drawn),–,"inconclusive: 11.2 µM [inhibitor, partial curve, poor fit]",–
Cc1cc(Cl)ccc1S(=O)(=O)N(C)CC1CCOCC1,inactive: -5.12%,–,–
COc1ccc(-n2nc3n(c2=O)CCN(CCC(C)C)C3)cc1,–,"inconclusive: 50.1 µM [inhibitor, partial curve, poor fit]",–
